# Laboratory results as given in the supplement of paper PMC8728848.
# The other results are listed elsewhere or left out.
# B1: EULS2 M4 (Oryza sativa) (protein)
# chain: MVYCRANPNYAMTARNGAVVLAPANPKDEYQHWIKDMRWSTSIKDEEGYPAFALVNKATGQAIKHSLGQSHPVRLVPYNPEVMDESVLWTESRDVGNGFRCIRMVNNIYLNFDAFHGDKYHGGVRDGTDIVLWKWCEGDSLRWKIQPYYILEQKLISEEDLNSAVDHHHHHH
# Experiments:
# Experiment in all cases: glycan array binding signal (z-score within array); higher = stronger binding
# Conditions in all cases: glycan notation: IUPAC condensed, linker removed
# [1] = target: Gal(b1-3)GlcNAc(b1-6)[Gal(b1-3)]GalNAc
# Outline: (§1)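 Glycan array data were curated from 3228 arrays in the Consortium for Functional Glycomics database and kept only where the protein sequence was available. Glycan names were converted to IUPAC-condensed notation, and columns mapping to the same glycan were averaged. The binding signal is a within-array Z-score, averaged across arrays of the same protein sequence at different concentrations or buffers and across linkers. Negative Z-scores can be read as non-binding.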
# [2] = target: Gal(b1-3)GlcNAc6S
# Outline: as §1
# [3] = target: Gal(b1-3)[Fuc(a1-4)]GlcNAc
# Outline: as §1
# [4] = target: Gal(b1-3)[Fuc(a1-4)]GlcNAc(b1-2)Man
# Outline: as §1
# [5] = target: Gal(b1-3)[Fuc(a1-4)]GlcNAc(b1-2)Man(a1-3)[Gal(b1-3)[Fuc(a1-4)]GlcNAc(b1-2)Man(a1-6)]Man(b1-4)GlcNAc(b1-4)[Fuc(a1-6)]GlcNAc
# Outline: as §1
# [6] = target: Gal(b1-3)[Fuc(a1-4)]GlcNAc(b1-3)Gal(b1-3)[Fuc(a1-4)]GlcNAc
# Outline: as §1
# [7] = target: Gal(b1-3)[Fuc(a1-4)]GlcNAc(b1-3)Gal(b1-4)[Fuc(a1-3)]GlcNAc
# Outline: as §1
# [8] = target: Gal(b1-3)[Fuc(a1-4)]GlcNAc(b1-6)GalNAc
# Outline: as §1
# [9] = target: Gal(b1-3)[GlcNAc(b1-6)]GalNAc
# Outline: as §1
# [10] = target: Gal(b1-3)[Neu5Ac(a2-6)]GalNAc
# Outline: as §1
# [11] = target: Gal(b1-3)[Neu5Ac(a2-6)]GlcNAc(b1-4)Gal(b1-4)Glc
# Outline: as §1
# [12] = target: Gal(b1-3)[Neu5Ac(b2-6)]GalNAc
# Outline: as §1
# [13] = target: Gal(b1-4)Gal
# Outline: as §1
# [14] = target: Gal(b1-4)GalNAc(a1-3)[Fuc(a1-2)]Gal(b1-4)GlcNAc
# Outline: as §1
# [15] = target: Gal(b1-4)GalNAc(b1-3)[Fuc(a1-2)]Gal(b1-4)GlcNAc
# Outline: as §1
# [16] = target: Gal(b1-4)Glc
# Outline: as §1
# [17] = target: Gal(b1-4)Glc6S
# Outline: as §1
# [18] = target: Gal(b1-4)GlcNAc
# Outline: as §1
# [19] = target: Gal(b1-4)GlcNAc(a1-6)Gal(b1-4)GlcNAc
# Outline: as §1
# [20] = target: Gal(b1-4)GlcNAc(b1-2)Man
# Outline: as §1
# [21] = target: Gal(b1-4)GlcNAc(b1-2)Man(a1-3)Man(b1-4)GlcNAc(b1-4)GlcNAc
# Outline: as §1
# [22] = target: Gal(b1-4)GlcNAc(b1-2)Man(a1-3)[Gal(b1-4)GlcNAc(b1-2)Man(a1-6)]Man(b1-4)GlcNAc(b1-4)GlcNAc
# Outline: as §1
# [23] = target: Gal(b1-4)GlcNAc(b1-2)Man(a1-3)[Gal(b1-4)GlcNAc(b1-2)Man(a1-6)]Man(b1-4)GlcNAc(b1-4)[Fuc(a1-6)]GlcNAc
# Outline: as §1
# [24] = target: Gal(b1-4)GlcNAc(b1-2)Man(a1-3)[Gal(b1-4)GlcNAc(b1-2)Man(a1-6)][Gal(b1-4)GlcNAc(b1-4)]Man(b1-4)GlcNAc(b1-4)[Fuc(a1-6)]GlcNAc
# Outline: as §1
# [25] = target: Gal(b1-4)GlcNAc(b1-2)Man(a1-3)[Gal(b1-4)GlcNAc(b1-2)Man(a1-6)][GlcNAc(b1-4)]Man(b1-4)GlcNAc(b1-4)[Fuc(a1-6)]GlcNAc
# Outline: as §1
# [26] = target: Gal(b1-4)GlcNAc(b1-2)Man(a1-3)[GlcNAc(b1-2)Man(a1-6)]Man(b1-4)GlcNAc(b1-4)GlcNAc
# Outline: as §1
# [27] = target: Gal(b1-4)GlcNAc(b1-2)Man(a1-3)[GlcNAc(b1-4)][Gal(b1-4)GlcNAc(b1-2)Man(a1-6)]Man(b1-4)GlcNAc(b1-4)GlcNAc
# Outline: as §1
# [28] = target: Gal(b1-4)GlcNAc(b1-2)Man(a1-3)[Man(a1-6)]Man(b1-4)GlcNAc(b1-4)GlcNAc
# Outline: as §1
# [29] = target: Gal(b1-4)GlcNAc(b1-2)Man(a1-6)Man(b1-4)GlcNAc(b1-4)GlcNAc
# Outline: as §1
# [30] = target: Gal(b1-4)GlcNAc(b1-2)Man(a1-6)[GlcNAc(b1-2)Man(a1-3)]Man(b1-4)GlcNAc(b1-4)GlcNAc
# Outline: as §1
# [31] = target: Gal(b1-4)GlcNAc(b1-2)Man(a1-6)[Man(a1-3)]Man(b1-4)GlcNAc(b1-4)GlcNAc
# Outline: as §1
# [32] = target: Gal(b1-4)GlcNAc(b1-2)[Gal(b1-4)GlcNAc(b1-4)]Man(a1-3)[Gal(b1-4)GlcNAc(b1-2)Man(a1-6)]Man(b1-4)GlcNAc(b1-4)GlcNAc
# Outline: as §1
# [33] = target: Gal(b1-4)GlcNAc(b1-2)[Gal(b1-4)GlcNAc(b1-4)]Man(a1-3)[Gal(b1-4)GlcNAc(b1-2)[Gal(b1-4)GlcNAc(b1-6)]Man(a1-6)]Man(b1-4)GlcNAc(b1-4)GlcNAc
# Outline: as §1
# [34] = target: Gal(b1-4)GlcNAc(b1-2)[Gal(b1-4)GlcNAc(b1-4)]Man(a1-3)[GlcNAc(b1-4)][Gal(b1-4)GlcNAc(b1-2)Man(a1-6)]Man(b1-4)GlcNAc(b1-4)GlcNAc
# Outline: as §1
# [35] = target: Gal(b1-4)GlcNAc(b1-2)[Gal(b1-4)GlcNAc(b1-4)]Man(a1-3)[GlcNAc(b1-4)][Gal(b1-4)GlcNAc(b1-2)[Gal(b1-4)GlcNAc(b1-6)]Man(a1-6)]Man(b1-4)GlcNAc(b1-4)GlcNAc
# Outline: as §1
# [36] = target: Gal(b1-4)GlcNAc(b1-2)[Gal(b1-4)GlcNAc(b1-6)]Man(a1-6)[Gal(b1-4)GlcNAc(b1-2)Man(a1-3)]Man(b1-4)GlcNAc(b1-4)GlcNAc
# Outline: as §1
# [37] = target: Gal(b1-4)GlcNAc(b1-2)[Gal(b1-4)GlcNAc(b1-6)]Man(a1-6)[Gal(b1-4)GlcNAc(b1-2)Man(a1-3)]Man(b1-4)GlcNAc(b1-4)[Fuc(a1-6)]GlcNAc
# Outline: as §1
# [38] = target: Gal(b1-4)GlcNAc(b1-2)[Gal(b1-4)GlcNAc(b1-6)]Man(a1-6)[GlcNAc(b1-4)][Gal(b1-4)GlcNAc(b1-2)Man(a1-3)]Man(b1-4)GlcNAc(b1-4)GlcNAc
# Outline: as §1
# [39] = target: Gal(b1-4)GlcNAc(b1-2)[Gal(b1-4)GlcNAc(b1-6)]Man(a1-6)[GlcNAc(b1-4)][Gal(b1-4)GlcNAc(b1-2)[Gal(b1-4)GlcNAc(b1-4)]Man(a1-3)]Man(b1-4)GlcNAc(b1-4)[Fuc(a1-6)]GlcNAc
# Outline: as §1
# [40] = target: Gal(b1-4)GlcNAc(b1-3)Gal(b1-3)GalNAc
# Outline: as §1
# [41] = target: Gal(b1-4)GlcNAc(b1-3)Gal(b1-3)GlcNAc
# Outline: as §1
# [42] = target: Gal(b1-4)GlcNAc(b1-3)Gal(b1-4)Glc
# Outline: as §1
# [43] = target: Gal(b1-4)GlcNAc(b1-3)Gal(b1-4)GlcNAc
# Outline: as §1
# [44] = target: Gal(b1-4)GlcNAc(b1-3)Gal(b1-4)GlcNAc(b1-2)Man(a1-3)[Gal(b1-4)GlcNAc(b1-3)Gal(b1-4)GlcNAc(b1-2)Man(a1-6)]Man(b1-4)GlcNAc(b1-4)GlcNAc
# Outline: as §1
# [45] = target: Gal(b1-4)GlcNAc(b1-3)Gal(b1-4)GlcNAc(b1-2)Man(a1-3)[Gal(b1-4)GlcNAc(b1-3)Gal(b1-4)GlcNAc(b1-2)Man(a1-6)]Man(b1-4)GlcNAc(b1-4)[Fuc(a1-6)]GlcNAc
# Outline: as §1
binder,measurement,setting,value
B1,glycan array binding signal (z-score),[1],-0.504
same,glycan array binding signal (z-score),[2],-0.943
same,glycan array binding signal (z-score),[3],0.94
same,glycan array binding signal (z-score),[4],-0.061
same,glycan array binding signal (z-score),[5],0.081
same,glycan array binding signal (z-score),[6],0.373
same,glycan array binding signal (z-score),[7],0.555
same,glycan array binding signal (z-score),[8],-0.614
same,glycan array binding signal (z-score),[9],-0.511
same,glycan array binding signal (z-score),[10],-0.516
same,glycan array binding signal (z-score),[11],-0.235
same,glycan array binding signal (z-score),[12],-0.453
same,glycan array binding signal (z-score),[13],-0.47
same,glycan array binding signal (z-score),[14],1.49
same,glycan array binding signal (z-score),[15],0.086
same,glycan array binding signal (z-score),[16],-0.232
same,glycan array binding signal (z-score),[17],-0.287
same,glycan array binding signal (z-score),[18],0.042
same,glycan array binding signal (z-score),[19],-0.074
same,glycan array binding signal (z-score),[20],-0.202
same,glycan array binding signal (z-score),[21],2.57
same,glycan array binding signal (z-score),[22],-0.36
same,glycan array binding signal (z-score),[23],-0.159
same,glycan array binding signal (z-score),[24],0.055
same,glycan array binding signal (z-score),[25],-0.382
same,glycan array binding signal (z-score),[26],-0.144
same,glycan array binding signal (z-score),[27],-0.477
same,glycan array binding signal (z-score),[28],7.18
same,glycan array binding signal (z-score),[29],-0.292
same,glycan array binding signal (z-score),[30],-0.606
same,glycan array binding signal (z-score),[31],-0.455
same,glycan array binding signal (z-score),[32],-0.586
same,glycan array binding signal (z-score),[33],-0.546
same,glycan array binding signal (z-score),[34],-0.641
same,glycan array binding signal (z-score),[35],-0.236
same,glycan array binding signal (z-score),[36],-0.498
same,glycan array binding signal (z-score),[37],0.327
same,glycan array binding signal (z-score),[38],-0.504
same,glycan array binding signal (z-score),[39],0.562
same,glycan array binding signal (z-score),[40],-0.272
same,glycan array binding signal (z-score),[41],-0.312
same,glycan array binding signal (z-score),[42],-0.382
same,glycan array binding signal (z-score),[43],-0.418
same,glycan array binding signal (z-score),[44],0.42
same,glycan array binding signal (z-score),[45],-0.23
